The record followed here is paper PMC12136788.

Some of the results follow.

T1: UNK ZnF1-3 (human, UniProt Q9C0B0 31-174)
T1 sequence: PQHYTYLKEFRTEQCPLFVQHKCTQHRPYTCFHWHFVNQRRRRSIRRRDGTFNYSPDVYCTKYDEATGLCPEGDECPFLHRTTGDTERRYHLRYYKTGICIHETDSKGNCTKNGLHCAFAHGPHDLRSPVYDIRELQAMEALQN

B1: 38352980_38353100_4098_CDS_ENSMUSG00000044864_ENSMUST00000156038|mouse|control|control (ssRNA)
RNA: GGGAGUUCUACAGUCCGACGAUCCUUCUUGUAGUUGAAGCUGGGGUCAGAGCCCUCAAUCUGGAGCUUCAGGGCUUGUUUGAGGUUCAGCUCUGUCUCCGAGGGGGGGAAGCCCUCCAGCACCUCCUGAUGCCCUCGCUCCUGCAACAGAGGAUUGAGCAUCA
B2: 91027473_91029270_3994_CDS_ENSG00000140575_ENST00000268182|human|control|control (ssRNA)
RNA: GGGAGUUCUACAGUCCGACGAUCCAACAGGAGAGUGUGGGUGUUGAUGAUUUCACCAAUGGAAAUGUAGAUUACUGGUUUGGUGAGGGUUACUAAAUCAGAGUACUCAUCCACAUUAAAUUUAUCCUGAAGCUCUGGGACAUCCAACAGAGGAUUGAGCAUCA
B3: chrX:153712385:153712386:-_ENSG00000102178_ENST00000369660|hu_mus|FALSE|FALSE (ssRNA)
RNA: GGGAGUUCUACAGUCCGACGAUCGUAAAUUUACUGUGUUUUUAAACCAAUUACUGGAAACCAAAAGCAGUCUAGCUUAUUAAUAGAGUUCCUUUUGGUGAAAUGACUCACAUGCAUCUUUAGUGUUAAUUUUACAAAUACGUUCAACAGAGGAUUGAGCAUCA
B4: chr8:95500983:95500984:-_ENSG00000164944_ENST00000437199|hu_hu|hu_hu_hu_mus_True|58_78 (ssRNA)
RNA: GGGAGUUCUACAGUCCGACGAUCAGAACACAUCUAUCGAGUAAAGGACCGUACAUGGACGACCUCUCCACUGCCUCCCACUAACAACUUUCCUCUCGAGCCUCCACUGCCGCUAUUUGUACUAGCCCAGGACGGUCCCAGGCCCAACAGAGGAUUGAGCAUCA
B5: chr2:155211079:155211080:+_ENSMUSG00000038375_ENSMUST00000043237|mus_hu|motif|central (ssRNA)
RNA: GGGAGUUCUACAGUCCGACGAUCGAGGCUGGAGAGGCGCUGGAACAUGGUGGGGGGCGAAGCGCCUCACGGGGGCGCCCGGUGGCAGUGCAAAAACCUCUCUGUGAUCCAAACAGCUGGGAGGCAGCGAUUUUAUUGGACUCUCAACAGAGGAUUGAGCAUCA
B6: 8912445_8912565_612_3pUTR_ENSMUSG00000071658_ENSMUST00000096259|mouse|control|control (ssRNA)
RNA: GGGAGUUCUACAGUCCGACGAUCUAUAGAUAGAGUAGAAGGUGCUUGGAGUUAGCCUGAAAGGGUGAGGAGAUGGGGUAGACAUGGGUAAGGAGGGCCUUGUGCUUCAAAUAAUCUCCGGGUAAAUGCGGGUAGAAGUGAUCUCAACAGAGGAUUGAGCAUCA
B7: chr15:38448722:38448723:-_ENSMUSG00000037458_ENSMUST00000152833|mus_hu|FALSE|FALSE (ssRNA)
RNA: GGGAGUUCUACAGUCCGACGAUCAGAUAACGGCCCAAAGAGUCGGGUAAAGCGUCUUCUCUUUUUCGGCGGAAUUUUUAAAGAGGGAUGUGGUUACCUUGAGCAGAAAUACCCAAGGCGGCCUGGGCCAUAGGCUGCGGGAACCAACAGAGGAUUGAGCAUCA
B8: chr15:76588000:76588001:-_ENSG00000140374_ENST00000560595|hu_hu|motif|central (ssRNA)
RNA: GGGAGUUCUACAGUCCGACGAUCGGACACUUCACCUCCAAGGCGUGUGGCUGCAGUAAUGGUAUUUAAAGUAAUGGGUGCGGGGGAAUCAUUUGCAUGCUCAGCUAUUACCAGGGUACUCUGAAAUCGUAGCAAUGAGGCCGCCAACAGAGGAUUGAGCAUCA
B9: chr1:58468927:58468928:-_ENSMUSG00000026034_ENSMUST00000148330|mus_mus|mus_mus_mus_hu_False|1_1 (ssRNA)
RNA: GGGAGUUCUACAGUCCGACGAUCAAUUACUGAAAAAGAUGUUCAUUACCUUAGCUAUGUACUUAAUGAACCAAAUUACCCAAACAAAAUAAACAUGGCAAUAUAAAAAUGUUAAGAAUUUACAAAGCUGUACAAAAAGACUGACAACAGAGGAUUGAGCAUCA
B10: chr14:102368134:102368135:+_ENSG00000078304_ENST00000445439|hu_hu|hu_hu_hu_mus_True|68_108 (ssRNA)
RNA: GGGAGUUCUACAGUCCGACGAUCAAGGGGUUCCAUGAUCUUCACAAACUCUGAUGGUUCAAUUACAUCUAAAAUCUCUUCUAAUUCAUUUAAGAACAUUACUUCUUUUGGACUGUGAGUCUUUGGCCAGUAUUUGAGAAGUGCCAACAGAGGAUUGAGCAUCA
B11: chr6:50807893:50807894:+_ENSG00000008196_ENST00000393655|hu_mus|FALSE|FALSE (ssRNA)
RNA: GGGAGUUCUACAGUCCGACGAUCCUCGGACACGGCUUUAGCAGGAAACUCUGUUUCACAAAUAUACCCGAAAUCCCGAGCUAAGUGAACAGCUUCCCCUUCUACCAGUGAGGUGAGUAACGUGACAUUUGCUGCUUUGCGCCUCAACAGAGGAUUGAGCAUCA
B12: chr17:45747064:45747065:+_ENSG00000108424_ENST00000290158|hu_hu|hu_hu_hu_mus_True|28_28 (ssRNA)
RNA: GGGAGUUCUACAGUCCGACGAUCGCCCACAGUCCACGCUGUUGUGUCUCGAACAACUACACUGGGGUCUUUCAUUAGUUCUAUUAGGGUGGGCAUAGCCUGUAUGACUAGUGGUUUCAGUUGAUUAGGCUCUGGUCCUUCCAACAACAGAGGAUUGAGCAUCA
B13: 46695667_46696168_2944_3pUTR_ENSG00000069329_ENST00000568784|human|control|control (ssRNA)
RNA: GGGAGUUCUACAGUCCGACGAUCUCAGAAUUUCUAUAAAAAGCUGCACUUGUAGAGAGGGGUCCAUGCACUGAUUUGCUAUUUUUAGAGCUUUUUUUAGGCACUCCAUUACCCUCUUGCCUCCGUGAAGCUCCUCCCCAUUUUCAACAGAGGAUUGAGCAUCA
B14: chr9:59188957:59188958:-_ENSMUSG00000025235_ENSMUST00000026265|mus_mus|motif|central (ssRNA)
RNA: GGGAGUUCUACAGUCCGACGAUCGGCCACCUGCUUGAGAUUAUCAGCACACUGUGGGCUGAGAACAGCACAUGUCUGAAAGAGUUCGGGGGAUUCUUGGAUAUUUCCUUCCAGGCGAAAAAUCAGUGCUUGGACAUAGAUAGCCAACAGAGGAUUGAGCAUCA

In this assay the target is T1, UNK ZnF1-3. The assay is described as follows: nsRBNS (natural sequence RNA bind-n-seq); RBNS binding buffer (assumed for nsRBNS): 25 mM Tris pH 7.5, 150 mM KCl, 3 mM MgCl2, 0.01% Triton X-100, 500 ug/ml BSA, 20 U/ml SUPERase-In, 4 C; UNK is unkempt and MSI1 is Musashi-1; names of the RNAs are library labels; protein concentration not given here; high values mean tight binding.
The molecule B1 registered a binding signal of 0.385 enrichment R.

On to B2, for which the binding signal was found to be 1.34 enrichment R.

For B3, the binding signal amounted to 0.592 enrichment R.

B4 came in with a binding signal of 1.45 enrichment R.

B5 returned a binding signal of 1.28 enrichment R.

Molecule B6 came in with a binding signal of 1.79 enrichment R.

The molecule B7 yielded a binding signal of 1.08 enrichment R.

B8 registered a binding signal of 1.36 enrichment R.

In the case of B9, the binding signal came to 1.59 enrichment R.

B10: the binding signal was determined as 0.735 enrichment R.

In the case of B11, the binding signal worked out at 0.683 enrichment R.

B12 registered a binding signal of 0.58 enrichment R.

The molecule B13 displayed a binding signal of 0.807 enrichment R.

With B14, the binding signal is 1.25 enrichment R.
